The results in this text go back to a collection of fitness landscapes (doi:10.1038/s41467-024-54723-y).

Over roughly 18,000 sequences, “TetR repression strength (sort-seq, GFP reporter)” has its median near 0.23; the highest 2% begin near 0.68. The list shows a part of the results.

UniProt P04483, sequence (P04483 whole entry): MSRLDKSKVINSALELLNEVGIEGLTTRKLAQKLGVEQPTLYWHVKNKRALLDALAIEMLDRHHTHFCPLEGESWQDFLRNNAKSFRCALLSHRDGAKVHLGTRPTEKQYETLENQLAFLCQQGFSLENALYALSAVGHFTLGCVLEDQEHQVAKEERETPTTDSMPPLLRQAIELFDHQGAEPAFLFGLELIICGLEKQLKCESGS

For the test, the target named is TetR (class B, Tn10) (UniProt P04483). Put plainly: TetR repression strength (sort-seq, GFP reporter) (relative to tetO2 = 1); higher = stronger repression. As to conditions: E. coli. An outline of the steps:
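E. coli SIG10-MAX carried a low-copy plasmid library with eight randomized operator positions between a constitutive promoter and sfGFP, with TetR constitutively expressed. Cells grew 5 h at 37 °C in LB with 50 µg/mL chloramphenicol, then 10^6 cells were FACS-sorted into 13 fluorescence bins, each Illumina-sequenced. Repression strength is the top bin index plus one minus the read-weighted mean bin, divided by the wild-type operator value. Three independent transformations; variants with ≥30 reads in all replicates and CV ≤0.5 were averaged.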
With TCCCACGAAGTTTTTGAGA, the TetR repression strength amounted to 0.308.

For the sequence TCCCTATTAGTAAAAGAGA, the TetR repression strength was determined as 0.518.

Sequence TCCCTTGCAGTGCTGGAGA came in with a TetR repression strength of 0.322.

In turn, TCCCCCGAAGTTGCCGAGA yielded a TetR repression strength of 0.549.

TCCCGGGGAGTTGTTGAGA gave a TetR repression strength of 0.251.

Regarding TCCCGAGGAGTCAGCGAGA, the TetR repression strength amounted to 0.138.

As for TCCCCCACAGTGATGGAGA, the TetR repression strength was 0.12.

TCCCATAAAGTTATTGAGA registered a TetR repression strength of 0.618.

TCCCCAGGAGTATCGGAGA registered a TetR repression strength of 0.

Consider TCCCCGCGAGTTAGCGAGA, for which the TetR repression strength is 0.115.

In turn, TCCCATAAAGTGACGGAGA yielded a TetR repression strength of 0.305.

TCCCGTCCAGTCGCAGAGA gave a TetR repression strength of 0.231.

TCCCGCGTAGTCGAGGAGA returned a TetR repression strength of 0.138.

For the sequence TCCCAAAGAGTTTTCGAGA, the TetR repression strength worked out at 0.114.

In the case of TCCCTGAGAGTGACCGAGA, the TetR repression strength came to 0.26.

The sequence TCCCTGCAAGTAAGGGAGA returned a TetR repression strength of 0.183.

TCCCTGTAAGTCTTAGAGA showed a TetR repression strength of 0.193.

Sequence TCCCGTCTAGTGTCTGAGA registered a TetR repression strength of 0.399.

In the case of TCCCGCATAGTGTGGGAGA, the TetR repression strength is 0.306.

In turn, TCCCACGTAGTGGGCGAGA yielded a TetR repression strength of 0.162.

With TCCCTCGGAGTTCAAGAGA, the TetR repression strength turned out to be 0.334.

For TCCCAGGCAGTGAGCGAGA, the TetR repression strength came to 0.0936.

Sequence TCCCGTGAAGTGCGAGAGA came in with a TetR repression strength of 0.279.

For TCCCGAATAGTTTAAGAGA, the TetR repression strength came to 0.298.

Take TCCCGTGGAGTTGGCGAGA: the TetR repression strength turned out to be 0.111.

In turn, TCCCAGTTAGTGGATGAGA came in with a TetR repression strength of 0.195.

Turning to TCCCCGAGAGTGGTAGAGA, the TetR repression strength was determined as 0.294.

For TCCCTAAAAGTGCTGGAGA, the TetR repression strength amounted to 0.416.

Consider TCCCCGAGAGTATGTGAGA, for which the TetR repression strength worked out at 0.199.

TCCCATTTAGTGAGCGAGA gave a TetR repression strength of 0.272.

TCCCGTATAGTCTGGGAGA displayed a TetR repression strength of 0.198.

For TCCCACGGAGTGGGTGAGA, the TetR repression strength amounted to 0.274.

As to TCCCAGACAGTCAGAGAGA, the TetR repression strength was 0.168.

TCCCGGTAAGTTGGCGAGA yielded a TetR repression strength of 0.178.

For the sequence TCCCGGTCAGTCGTAGAGA, the TetR repression strength came out at 0.38.

In turn, TCCCTCGGAGTAGGGGAGA showed a TetR repression strength of 0.0342.

In turn, TCCCGCGTAGTCGAAGAGA gave a TetR repression strength of 0.104.

With TCCCTGGTAGTACTGGAGA, the TetR repression strength worked out at 0.0313.

Take TCCCGCAGAGTGGTTGAGA: the TetR repression strength stood at 0.101.

As for TCCCTGGGAGTTGTGGAGA, the TetR repression strength was 0.213.

Sequence TCCCATCGAGTCTATGAGA displayed a TetR repression strength of 0.227.

Turning to TCCCGATTAGTAGTTGAGA, the TetR repression strength came to 0.199.

Regarding TCCCTTAAAGTCAAGGAGA, the TetR repression strength stood at 0.416.

TCCCGTTGAGTATATGAGA had a TetR repression strength of 0.229.

Regarding TCCCGCGAAGTGTTAGAGA, the TetR repression strength was determined as 0.141.

TCCCCACGAGTTACAGAGA: the TetR repression strength turned out to be 0.435.

In the case of TCCCTGTCAGTGGACGAGA, the TetR repression strength is 0.342.

Consider TCCCTACAAGTGTCAGAGA, for which the TetR repression strength was 0.21.

Sequence TCCCTTAGAGTATGTGAGA had a TetR repression strength of 0.0743.

Regarding TCCCGGCGAGTGAAAGAGA, the TetR repression strength is 0.31.

As to TCCCGGCGAGTCCGGGAGA, the TetR repression strength came to 0.271.

TCCCGTGGAGTACGAGAGA registered a TetR repression strength of 0.204.

On to TCCCCAGGAGTGGTCGAGA, for which the TetR repression strength came to 0.164.

For the sequence TCCCAGGCAGTATTCGAGA, the TetR repression strength came to 0.115.

TCCCGGCAAGTTTAGGAGA yielded a TetR repression strength of 0.463.

Sequence TCCCCACAAGTCTTAGAGA gave a TetR repression strength of 0.319.

TCCCTGGCAGTGAGGGAGA came in with a TetR repression strength of 0.197.

For the sequence TCCCCTGGAGTGAAAGAGA, the TetR repression strength stood at 0.283.

The sequence TCCCATCCAGTTCAAGAGA registered a TetR repression strength of 0.457.

TCCCGGAGAGTTGGTGAGA had a TetR repression strength of 0.095.

Regarding TCCCCGAAAGTAGGTGAGA, the TetR repression strength was determined as 0.104.

TCCCAGTAAGTGGCAGAGA: the TetR repression strength is 0.206.

For the sequence TCCCCCGGAGTGTCGGAGA, the TetR repression strength stood at 0.139.

Sequence TCCCAGATAGTGGGGGAGA came in with a TetR repression strength of 0.173.

For the sequence TCCCTCGTAGTGTCGGAGA, the TetR repression strength stood at 0.351.

With TCCCGGTTAGTGGTAGAGA, the TetR repression strength stood at 0.163.

Consider TCCCTGCGAGTATTTGAGA, for which the TetR repression strength was 0.391.

As for TCCCGGCCAGTGCATGAGA, the TetR repression strength was found to be 0.465.

Sequence TCCCAGTAAGTAAAAGAGA displayed a TetR repression strength of 0.23.

TCCCACCGAGTACGGGAGA gave a TetR repression strength of 0.135.

TCCCAGGAAGTGTGGGAGA returned a TetR repression strength of 0.288.

Take TCCCGATAAGTTGCGGAGA: the TetR repression strength was 0.185.

In turn, TCCCATTGAGTAGGGGAGA came in with a TetR repression strength of 0.352.

TCCCCCGAAGTGAGGGAGA returned a TetR repression strength of 0.445.

In turn, TCCCGCCTAGTGGGGGAGA had a TetR repression strength of 0.215.

The sequence TCCCCCTTAGTACTAGAGA yielded a TetR repression strength of 0.299.

As to TCCCATAAAGTGTTAGAGA, the TetR repression strength is 0.283.

Sequence TCCCTACAAGTGCCGGAGA came in with a TetR repression strength of 0.202.

In the case of TCCCGTAGAGTTACGGAGA, the TetR repression strength was 0.185.

As for TCCCATGTAGTTCGAGAGA, the TetR repression strength was determined as 0.146.

For TCCCTCTCAGTGTGGGAGA, the TetR repression strength stood at 0.234.

Turning to TCCCCTGAAGTTAGGGAGA, the TetR repression strength worked out at 0.115.

TCCCGTAGAGTGCTTGAGA displayed a TetR repression strength of 0.181.

On to TCCCAATGAGTCTTGGAGA, for which the TetR repression strength is 0.172.

As to TCCCCCTAAGTGATAGAGA, the TetR repression strength is 0.442.

TCCCAGCCAGTCCGCGAGA had a TetR repression strength of 0.294.

For the sequence TCCCGTATAGTCAACGAGA, the TetR repression strength amounted to 0.206.

TCCCGTGTAGTCGGGGAGA returned a TetR repression strength of 0.236.

For the sequence TCCCCCCTAGTTGGGGAGA, the TetR repression strength worked out at 0.205.

Sequence TCCCTATTAGTGAGTGAGA returned a TetR repression strength of 0.762.

In turn, TCCCCATCAGTGCTGGAGA came in with a TetR repression strength of 0.157.

Sequence TCCCAATCAGTTGTTGAGA had a TetR repression strength of 0.243.

Turning to TCCCGTGAAGTCACGGAGA, the TetR repression strength amounted to 0.235.

For the sequence TCCCGGAAAGTTTCGGAGA, the TetR repression strength was 0.0395.

Consider TCCCTAGGAGTGTGGGAGA, for which the TetR repression strength stood at 0.119.

Turning to TCCCTATCAGTATCGGAGA, the TetR repression strength was determined as 0.315.

Sequence TCCCCTATAGTTGGGGAGA had a TetR repression strength of 0.174.

In turn, TCCCATCGAGTGGCCGAGA yielded a TetR repression strength of 0.201.

The sequence TCCCTTAGAGTGTCAGAGA returned a TetR repression strength of 0.149.

Consider TCCCCGAAAGTACACGAGA, for which the TetR repression strength is 0.32.

In turn, TCCCAAAGAGTTGCTGAGA showed a TetR repression strength of 0.16.

Consider TCCCGTTCAGTGTTTGAGA, for which the TetR repression strength worked out at 0.321.
